# Where a structure was tested more than once in an assay, its records may differ in their call.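 A percent growth of 40 corresponds to 60% growth inhibition; 0 means no net growth; -100 means all cells died. Active threshold: below 10.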 The source holds more than one record for some entries. The list is limited to them. An entry can have further records. The screen tested this drug many times, at the concentration stated with the values; each value is one run. Counts like (3×) give the number of equal values in this list.
# Experiments:
# [1] = system: HT29 colon; assay: NCI-60 one-dose screen, 48 h (100 = growth as untreated, 0 = no growth, -100 = all killed); details: 25 µM
# [2] = system: SNB-75 CNS; assay: as above; details: 0.25 µM
structure (smiles),measurement,setting,value
COc1cccc2c1C(=O)c1c(O)c3c(c(O)c1C2=O)C[C@@](O)(C(=O)CO)C[C@@H]3OC1CC(N)C(O)C(C)O1 (stereo not given in full),growth,[1]; runs of 1998,"active: 3.99, -1.93, 0.922, 3.8, -34.8, -22.2, -50, -55.2, -45.4, 4.8, -3.32, -60.6, 9.37, -13.7, -51.9, -30.9, -25.4, -7.2, -21.2, -22.4, -9.12% and inactive: 11.7%"
same,growth,[1]; runs of 1999,"active: 1.96, -20, -42.4, 2.1, -35.9, -86.1, 0.711, -63.8, 0.123, -67.1, -42.5, 4.06, -2.58, -35.7, -81.3, -47.5, -6.61%"
same,growth,[1]; runs of 2000,"active: 0.0349, -100, -42.6, -7.29%"
same,growth,[2]; runs of 2006,active: 9.24% and inactive: 33%
same,growth,[2]; runs of 2007,"inactive: 20.2, 43.8, 13.1, 15, 46.2 (2×), 49.7, 26.4, 23.3, 39.9 (2×), 43.2, 13.8, 10.2, 21.7, 22.1, 39.4, 50.6, 38.5 (2×), 33.6, 33.7, 36.7, 18.1, 41.6 (2×), 51.8, 55.8 (2×), 52.6, 67.4, 45.2, 42.7, 67, 69.1, 26.9 (2×), 50, 31.8, 19.4, 32.1, 41.9% and active: -4.5%, 8.69%, 4.18%"
same,growth,[2]; runs of 2008,"inactive: 43.8, 37.6, 53.9, 13.8 (2×), 39, 36.6, 37.7, 44, 21.1, 38.7, 39.7, 43, 50.9, 47.4, 43.3 (2×), 37.3, 48.2, 34.4, 18, 17.3, 30.5, 10.8, 74.7, 17.2, 41.5, 17.8, 17.5, 18.8, 33.6 (2×), 22.9, 29.2, 20, 28.3, 49.2, 36.5, 12.1, 34.1, 23.5, 36, 19.8, 22.8% and active: -23.5, 1.73, 5.28, 0.797, -4.04, -7.62, -38.9, 5.27, -11.4, -14.4, -10.7, -20.6%"
same,growth,[2]; runs of 2009,"inactive: 26.8, 31.4, 44, 39.6, 25.9, 29.2, 23.7 (2×), 38.7, 33.1 (2×), 32.1, 41.3, 35.7 (2×), 21.7, 32.9 (2×), 38.3, 37.8 (2×), 33.3, 25.7, 27.2, 26 (2×), 25, 24.6, 33.4, 15.2, 59.9, 36.1, 51.6, 40.2, 20.3, 17.1, 11.5, 22.8, 34.7, 40.8, 40.4, 44.5, 32.2, 25.2, 13.5, 19.7, 22.4, 22.2, 41.6, 35.6, 18.9, 11, 60.2, 38.6, 18.4, 46.4, 36, 44.8, 39.1, 50.1, 20.9, 24.3% and active: -2.03, -27.5, 8.03, 9.57%"
same,growth,[2]; runs of 2010,"inactive: 34.4 (3×), 41.6, 28.6, 39.1 (2×), 39.6, 27.1, 21.2 (2×), 44.8, 35.9, 28.8, 35 (2×), 27.3, 37.6, 18.4, 20.1, 22.5, 23.9, 38.2, 13.8, 24.6, 19.2, 29.7 (2×), 16.6, 17.3, 21.7, 49.4, 10.5, 31.4 (2×), 24.8, 27.6 (2×), 25.6, 31.9, 19.4, 29.9, 39.3, 29.4, 37.3 (2×), 37.2, 40.4, 24.5, 36.8, 30.9% and active: 2.34%, 2.11%"
same,growth,[2]; runs of 2011,"inactive: 41.6, 45, 38.1, 33, 27.2 (2×), 27.7, 43, 23.8, 61, 42.8, 29, 29.4, 29.7, 37.6, 31.4, 45.4 (2×), 33.5, 38.9, 47, 46.8, 42.4, 50.6, 41.3, 41, 44.8, 40.2, 41.7, 31.6, 46.2, 49.3, 34.7, 28.4, 36.1, 18.3, 36.7, 41.9 (2×), 37.4, 26.6, 20.6, 14.2, 18.5, 23.5, 42.6, 31.2 (2×), 23.9, 35.2, 29.9, 32.1, 39.7, 29.8, 37.5% and active: 4.23%"
same,growth,[2]; runs of 2012,"inactive: 34.7, 22.4, 29.9, 30.4, 37.4, 35, 38.5, 41.4 (2×), 31.1, 28.6, 27.1, 32.8, 32.9 (2×), 22.5, 24.7 (2×), 26.1, 20.3, 23.6, 40.8, 37 (2×), 33, 44.6, 41.3, 38.3 (2×), 18.2, 44, 44.1, 47.7, 39.5, 42.7, 35.1 (2×), 23.1, 36.2, 37.8, 29.6, 29.8, 29.1, 33.1, 39.2, 41.5, 44.7, 37.7, 49.9, 56.5, 43.7, 41, 45.4, 40.6, 54.2, 34.3, 24.1, 25.9, 22.3, 10.9, 37.2, 28.8, 18.3, 21.8, 21.4, 28.9% and active: 6.89%, -13.6%"
same,growth,[2]; runs of 2013,"inactive: 30.5, 31.3, 28.4, 53.1, 59.2, 37.1 (2×), 39.8, 30.1 (2×), 38.8, 30.2 (2×), 33.8, 16.4, 35.1, 35.9, 43.8 (2×), 37.3, 44.5, 38.2, 44.6, 40.2, 37.4, 43.7, 43.3, 38.7, 37.8, 39.6, 32, 39.2, 33.5, 50.1, 12.8, 46.6, 41.1, 33, 46.8 (2×), 40.4, 41.7, 32.1, 40.6, 39.3, 49.7, 42.8, 42.1, 45 (2×), 46.2, 52.3, 56.4, 35.5, 47, 37, 42.7 (2×), 21.6, 25, 15.9, 28.3, 19.4, 15.7, 19.6, 31.7, 23.7, 24.7, 24.3% and active: 2.06%, -1.01%"
same,growth,[2]; runs of 2014,"inactive: 28.9, 31.9, 22.8, 17.3 (2×), 11, 14.5, 13.3, 18.8, 31.1, 23.2, 21.9, 24.7, 22.1, 19.7, 20.5, 19.8, 21.4, 17.5 (2×), 21.2, 25.7, 33.1, 36.5, 29.4, 29.7, 31.3, 29.2, 25.8, 32.1, 26.4, 17.9, 25.3, 18.4, 33.4, 29.8, 24.8, 20.2, 34.2 (2×), 28.5, 30.4 (2×), 33.6, 24, 11.2, 25.9, 36.1, 18.5, 17.8, 16.9, 26.9, 22.9, 23.5, 24.6, 23.8, 37.2, 22.5, 28 (2×), 32.4, 34.3, 30.2 (2×), 25.6, 35.7, 32.3, 41.9, 37, 52.7, 29.5, 42.1, 19.4, 44.1, 39.1, 46.1, 45%"
same,growth,[2]; runs of 2015,"inactive: 24.7, 24.6, 27.6 (2×), 23.3, 29.5, 30.1, 37, 33.2, 41.4, 43.8, 40.5 (2×), 24.3 (2×), 32, 46.7, 28 (2×), 38.5, 27.5, 22.3, 28.9 (2×), 46.4, 32.1, 30.2, 25.8, 28.5, 25.2, 27.7, 26.9, 31.1, 29.3, 27.3, 25, 31.4 (2×), 49.9, 48.6, 38.2, 28.8, 34.5, 32.3, 35.7, 35.1, 36.6, 29.4, 21.7, 19.4, 29.9, 26.7, 21.8, 15.3, 18.7, 47.9, 29.8, 33.8, 41.6, 36.8 (2×), 35.5, 36, 39.4, 47.4, 44.6, 37.7, 43.6, 45.3, 37.2, 36.5, 35, 25.9, 37.5, 38.7, 54.5, 54, 40.6, 33.3, 36.1, 30.8, 34.7% and active: 9.04%, -3.73%"
same,growth,[2]; runs of 2016,"inactive: 45.9, 36.5, 38.9, 48.2, 50.1, 31, 33.8, 32.5, 15 (2×), 20.8, 31.2, 31.7 (2×), 14.9, 20.4 (2×), 14.3, 15.4, 12.5, 18.4, 10.8, 18.2, 20, 27.1, 18, 32.4, 26, 27.4, 34.2, 26.2, 30.9, 31.4, 32, 29.8, 35.7, 27.7, 33.5, 35 (2×), 40.8 (2×), 32.1, 37.8, 28.8, 42.1, 42.8 (2×), 44, 39.2, 34.3, 39.9 (2×), 35.8, 30.5, 37.6, 41, 49.7, 41.7, 46.7, 38.7, 48, 44.9, 54.2, 27.6, 46, 46.6, 41.4, 49.4 (2×), 47.9, 56.3, 35.1, 37, 40.4, 46.8, 53.3, 48.1, 43.6, 23.4, 25.9, 44.7, 43.5, 36.6, 35.3, 47.5%"
same,growth,[2]; runs of 2017,"inactive: 40.4, 40.3, 39.8, 40.8, 42.2, 37.6, 19.7, 21.7, 20.6, 26, 22.1, 32.9 (2×), 30.5, 31.6, 24.3, 24.2, 27.6, 30.8, 28.3, 38.3 (2×), 40.7, 40.2, 39.9, 25.7 (2×), 41.5 (4×), 43.8, 34.3, 38.4 (2×), 39.1, 33 (3×), 35.7, 29.1, 31.1, 25.4, 31.4, 29.4 (3×), 30.9, 38.9, 28.5, 26.7, 33.8 (2×), 33.9, 29.5, 41.3, 33.1, 29, 36.7, 42.1, 31, 22.3, 31.8, 25.8 (2×), 25, 37, 33.4, 18.4, 17.2, 28.6, 29.8 (2×), 28.2, 32, 34.7, 33.6%"

# Source: PubChem BioAssay (NCI)
